From PubChem BioAssay AID504884 (Broad Institute, 2011)
The campaign covered roughly 360,000 compounds. About 230 (0.064%) were called active. Inconclusive results, whose numbers are uncertain, are shown with a selection of clear calls. No stated cut-off is given here; in the data, active means activity above about 50% (passing the limit was not always enough); inconclusive means no clear call, values can overlap the other calls. The source holds several records for some structures; these can differ, active in one and inactive in another.

System: DNA topoisomerase I (Yersinia pestis CO92)
Test: Yersinia pestis topoisomerase I inhibitors, primary screen, biochemical, cleavage product accumulation, plate reader, single point (AID 504884)
Conditions: Y. pestis Topo-I cleavage product accumulation, at 10 µM, stronger effect = higher value

Structure (SMILES) | activity
CCCCN(C)CCNC(=O)c1cc2c(-c3ccccc3F)nn(C)c2s1 | inactive: -6.47%
CC(C)(C)c1ccc(/C=N/Nc2ccc(C(=O)O)cc2)cc1 | inactive: -3.78%
CC(C)CC(c1nnnn1C(C)C)N1CCN(c2cccc(Cl)c2)CC1 (stereo not given) | inconclusive: 50.2%
Cc1ccc(C(c2cc(Cl)c3cccnc3c2O)N2CCN(C)CC2)cc1 (stereo not given) | inactive: -11.9%
CCOC(=O)CCN(Cc1cccs1)S(=O)(=O)c1ccc(Cl)cc1 | inconclusive: 52.2%
CC(C)(Cc1ccccc1)NC(=O)C(=O)c1cn(CC(=O)N2CCOCC2)c2ccccc12 | inconclusive: 51.6%
CCN(CC)CC(=O)Nc1ccccc1SCC(=O)Nc1ccsc1C(=O)OC | inconclusive: 52.3%
CC(Oc1ccc(F)cc1)C(=O)Nc1cc(S(=O)(=O)N2CCOCC2)ccc1N1CCCCC1 (stereo not given) | inconclusive: 57.3%
O=C(NC1CCN(Cc2ccccc2)CC1)c1ccc2c(c1)OCCCO2 | active: 70.2%
Cc1ccc(C2(c3noc(CN(C)Cc4cnn(C)c4)n3)CCCC2)cc1 | inconclusive: 70.5%
O=C(Nc1ccccc1)N(CCN1CCOCC1)Cc1cccc(Cl)c1 | active: 72.6%
Cn1c(=O)[nH]c(=O)c2c1nc(N1CCCCCC1)n2Cc1cccc2ccccc12 | active: 63.4%
O=C(Cc1n[nH]c(=O)c2ccccc12)OCC(=O)c1ccccc1 | inactive: 12.5%
CCN(CC)CCN1C(=O)/C(=C\c2ccc(Cl)c([N+](=O)[O-])c2)SC1=Nc1ccc(OC)cc1 | inactive: 7.78%
O=C(c1cc(Br)c(Br)s1)N1CCN(C/C=C/c2ccccc2)CC1 | active: 58%
Cc1ccc2nc3n(c(=O)c2c1)-c1cc2ccccc2cc1C(=O)NC3Cc1ccccc1 (stereo not given) | inconclusive: 51%
COc1ccc(-c2nc(CN3CCN(Cc4cccc(F)c4)CC3)c(C)o2)cc1 | active: 54.8%
Cc1ccc2c(=O)n3c(nc2c1)C(Cc1ccc(O)cc1)NC(=O)c1cc2ccccc2cc1-3 (stereo not given) | inconclusive: 54.9%
Brc1c(CSc2nncc3ccccc23)nc2ccccn12 | inconclusive: 56.2%
Fc1cccc(Cl)c1CSc1nnc(COc2cccc3cccnc23)o1 | inconclusive: 53%
Cc1nn(-c2ccccc2)c(C)c1/C=N/NC(=O)CSc1nnc(SCc2cccc3ccccc23)s1 | inconclusive: 50.5%
CCCCCCOc1ccc(N2C(=O)CC(S/C(N)=N/N=C(\C)c3cccs3)C2=O)cc1 (stereo not given) | active: 62.6%
Fc1ccc(SCCc2ccccn2)cc1 | active: 50.1%
Nn1c(Cc2ccc(F)cc2)n[nH]c1=S | inconclusive: 84.3%
COc1cc(C(=S)N2CCN(c3cccc(Cl)c3)CC2)ccc1O | inconclusive: 154%
Cc1c(NC(=O)c2cccc(NC(=O)COc3ccccc3C#N)c2)c(=O)n(-c2ccccc2)n1C | inconclusive: 51.7%
COc1ccc(C)cc1S(=O)(=O)N(C)CC(=O)Nc1ccc2c(c1)OCO2 | inactive: -4.93%
Cc1cc(C(C)(C)C)cc(C)c1COC(=O)c1cccnc1 | inconclusive: 62.7%

Structure (SMILES) | activity
COc1cc(/C=N/NC(=O)c2cc3ccccc3cc2O)ccc1OCCN1CCCCC1 | inactive: -17.1%
COC(=O)c1c(-c2cccs2)csc1NC(=O)c1cccnc1 | inconclusive: 52.6%
Cc1oc2cc(Br)c(O)c(Br)c2c1-c1ccccc1 | inactive: -0.46%
COCCN(C(=O)COC(=O)CCn1c(C)csc1=O)c1c(N)n(Cc2ccccc2)c(=O)[nH]c1=O | inconclusive: 169%
O=C1CCC2(CC1)NC(=O)N(c1ccccc1)N2 | inconclusive: 51%
CCn1c(=O)c(C(=O)CN2c3ccccc3CC2C)c(N)n(Cc2ccccc2)c1=O (stereo not given) | inconclusive: 81.2%
NCCCCCc1cn(CC(=O)NCCCCCCCCCCC(=O)N2CCNCC2)nn1 | inconclusive: 51.2%
CCn1cc(CCCC(=O)NCc2ccccc2OC)c2ccccc21 | inconclusive: 50.1%
Cc1ccc(Cc2c(-c3ccccc3)nc3ccc(Cl)cn23)cc1 | inconclusive: 53.1%
Nc1ccccc1Nc1cc(-c2cccc(Cl)c2)nn1-c1ccccc1 | inactive: -16.1%
O=C1CCCC(O)=C1C(C#Cc1ccccc1)C1=C(O)CCCC1=O | inactive: 8.94%
Cc1nn(-c2ccccc2)c(C)c1NC(=O)COC(=O)c1ccccc1 | inactive: 3%
CCN(CC)S(=O)(=O)c1ccc(C(=O)OCC(=O)c2ccc3c(c2)NC(=O)CO3)cc1 | inconclusive: 55.8%
Fc1ccc(NC(=S)Nc2cccc3ccccc23)cc1 | inactive: -4.08%
O=C(CCc1ccc(S(=O)(=O)NC2CCCCC2)cc1)N(Cc1ccccc1)Cc1ccccc1 | inconclusive: 52.4%
O=C(COc1ccc(Cl)cc1Cl)Nc1ccc(-c2ccc(N3CCOCC3)nn2)cc1 | inconclusive: 53.3%
O=C(COc1ccccc1-c1ccccc1)NCc1ccco1 | inconclusive: 51.5%
CN(C)C(=O)/C(C#N)=C\c1cc(Br)c(Sc2ccc(Cl)cc2)o1 | inconclusive: 51.7%
Cn1cccc1C1C=C(c2ccc(C(C)(C)C)cc2)Nc2ncnn21 (stereo not given) | inconclusive: 54.1%
CC(Oc1cccc(Cl)c1)C(=O)Nc1cc(S(=O)(=O)N2CCOCC2)ccc1N1CCCCC1 (stereo not given) | active: 70.7%
O=C(O)CCCCCNc1ncnc2ccc(Br)cc12 | inconclusive: 85.8%
COc1cccc2c1C(=N)c1c(O)c3c(c(O)c1C2=O)CC(O)(C(C)=O)CC3OC1CC(N)C(O)C(C)O1 (stereo not given) | active: 231%
CCCC(C)NC(=O)COc1ccc(Sc2ccc(OCC(=O)NC(C)CCC)cc2)cc1 (stereo not given) | inconclusive: 60.8%
Cc1nc(Nc2nc(-c3ccccc3)cc(=O)[nH]2)nc2ccccc12 | inconclusive: 75.6%
Cc1cc(-c2ccccc2)nc(Nc2nc3c(C)cccc3c(=O)[nH]2)n1 | inconclusive: 65.7%
CCCOP(=O)(OCCC)C1(Nc2ccc(C)cc2)CCCCC1 | inconclusive: 53.3%
O=C(c1ccc(C(F)(F)F)cc1)N1CCC(=O)N(C(CO)Cc2ccccc2)CC1 (stereo not given) | inconclusive: 54.4%
